# Experimental data: PubChem BioAssay AID686978 (National Center for Advancing Translational Sciences (NCATS), 2013)
# Values joined by “and” are separate entries in the source; they are usually repeats but may differ in a detail not shown here. Equal entries are not always repeated. The whole screen tested about 420,000 compounds, of which about 64,000 (15%) were called active. Inconclusive means that the source gave no clear call. Such entries were picked first, then a sample of the others. Calls come from the whole dose curve; as a rule, active = well fitted inhibition curve with a large enough effect; inconclusive = small, poorly fitted or top-dose-only effect; inactive = flat fitted curve, though single readings scatter. Potencies of inconclusive entries are doubtful fits and often do not repeat.
# Experiment: qHTS for Inhibitors of human tyrosyl-DNA phosphodiesterase 1 (TDP1): qHTS in cells in absence of CPT; note: nearly all actives have a fitted effect of over 55% in size
# Details: DT40 Tdp1-/- hTDP1 cells, no CPT, ATP luminescence, 48 h; activity change, negative = growth inhibition: at 46.2 µM (top of the series)
# Procedure, shortened: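 Compound effects on proliferation are scored in DT40 Tdp1-/-;hTDP1 cells in the absence of CPT. ATP levels (CellTiter-Glo luminescence) are recorded after a ≥48 hr, 37 °C incubation.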
# % is set by controls: 0 for no effect and ±100 for the full control effect; potency is the fitted concentration of half-maximal effect; tags give direction and shape of the fitted curve.
Structure (SMILES),"activity change, negative = growth inhibition",Potency
COCCn1c(=O)c(-c2ccc(F)cc2)nc2cnc(OC)nc21,inactive: -9.72%,–
COc1c2c(cc3c1C(CC(O)Cc1ccccc1)N(C)CC3)OCO2 (stereo unspecified),–,active: 10.3 µM
O=C(COC(=O)c1cc(S(=O)(=O)N2CCOCC2)ccc1O)NCC1CCCO1 (stereo unspecified),inactive: -1.64%,–
Cc1ccc2nc(-c3ccc(C)s3)c(Nc3ccc4c(c3)OCCO4)n2c1,–,"inconclusive: 29.1 µM [inhibitor, single point]"
COc1ccc(C2Nc3ccccc3C(=O)N2Cc2ccco2)cc1COc1ccc(NC(C)=O)cc1 (stereo unspecified),–,active: 11.2 µM
COc1ccc(C(C)=O)cc1COC(=O)c1c(C)nn(-c2ccccc2)c1C,–,"inconclusive: 29.1 µM [inhibitor, single point]"
Cc1cccc(C)c1NC(=O)CCCSc1nnc(-c2ccc(Cl)cc2)n1-c1ccccc1,–,active: 16.4 µM
CCN(CC)CCNC(=O)c1cc2c(-c3cccc(OC)c3)nn(C)c2s1,–,"inconclusive: 16.4 µM [inhibitor, single point] and inconclusive: 23.1 µM [inhibitor, single point]"
Cc1cccc(N(Cc2ccccc2)C(=O)c2ccc(C)c(S(=O)(=O)N3CCOCC3)c2)c1,–,active: 13 µM
O=C(NCc1ccco1)C(c1ccccc1)N(C(=O)Cc1cccs1)c1ccccc1 (stereo unspecified),–,"inconclusive: 8.2 µM [inhibitor, partial curve, poor fit]"
O=C(C1=NNCC1c1ccccc1)C1OC1c1ccccc1 (stereo unspecified),–,"inconclusive: 29.1 µM [inhibitor, single point]"
CC1CCCCN1C(=O)NC1CC(=O)N(c2ccc3c(c2)OCCO3)C1 (stereo unspecified),inactive: -24.6%,–
CN(C)/C=C/C(=O)c1cccc(Cl)c1,inactive: -24.9%,–
O=C1CSC(c2ccccc2)N1c1ccc([N+](=O)[O-])cc1 (stereo unspecified),–,"inconclusive: 29.1 µM [inhibitor, single point]"
CCOc1ccc(-c2cc(C(=O)N3CCN(c4ccccn4)CC3)c3ccccc3n2)cc1,–,active: 5.62 µM and active: 4.47 µM and active: 9.2 µM
Cc1nn(C(C)C(=O)NCc2ccco2)c(=O)c2nn(-c3ccccc3)c(C)c12 (stereo unspecified),–,"inconclusive: 29.1 µM [inhibitor, single point]"
O=C(CN1C(=O)NC2(CCCCCC2)C1=O)NCCc1ccc(F)cc1,inactive: 12.1%,–
COc1cc(/C=N/NC(=O)CC(=O)NC2CCCCC2)ccc1O,inactive: -2.93%,–
O=C(O)C(=Cc1ccccc1[N+](=O)[O-])c1ccc2c(c1)OCO2,–,"inconclusive: 29.1 µM [inhibitor, single point]"
Cc1cc(C)c2oc(-c3ccc(C)c(NC(=S)NC(=O)/C=C/c4ccco4)c3)nc2c1,–,"inconclusive: 29.1 µM [inhibitor, single point]"
COc1ccc(C(=O)CCc2ccccc2O)c(OC)c1,–,"inconclusive: 25.9 µM [inhibitor, single point]"
CCCCN(C)C(=O)CSc1nc(NCc2ccc(OC)cc2)c2ccccc2n1,–,"inconclusive: 23.1 µM [inhibitor, single point]"
COc1ccccc1CCNC(=O)C(=O)NCC1OCCN1S(=O)(=O)c1ccc(OC)c(OC)c1 (stereo unspecified),inactive: -27.5%,–
CCOc1ccccc1NC(=O)Cn1c(=O)n(CCCC(=O)NCc2ccc(C)cc2)c(=O)c2ccccc21,–,"inconclusive: 16.4 µM [inhibitor, partial curve, poor fit]"

Structure (SMILES),"activity change, negative = growth inhibition",Potency
COc1cc(NC(=O)CN(C)CCOc2ccccc2)c(C)cc1[N+](=O)[O-],–,"inconclusive: 29.1 µM [inhibitor, single point]"
COc1ccc([C@H]2C=C3CN(C(=O)OC(C)(C)C)S(=O)(=O)[C@H]3C[C@H]2OC(=O)c2ccc(C(F)(F)F)cc2)cc1,–,"inconclusive: 13 µM [inhibitor, partial curve]"
O=C(NNC(=S)Nc1cccc(Cl)c1)c1ccccc1OC(F)F,–,"inconclusive: 23.1 µM [inhibitor, single point]"
CC(C)CCNC(=O)Cn1c2c(c(-c3ccccc3Cl)cc1=O)CCC2,–,"inconclusive: 29.1 µM [inhibitor, single point]"
COc1ccc(-c2sc3ccc(OC)cc3c2C#Cc2cncn2C)cc1,–,"inconclusive: 20.6 µM [inhibitor, single point]"
Cc1ccc(C(=O)N2CCN(CCc3ccncc3)CC2)cc1,inactive: -2.67%,–
COc1ccccc1N=Cc1nc(-c2ccccc2)oc1OC(C)=O,–,"inconclusive: 32.6 µM [inhibitor, partial curve]"
COc1cccc(NC(=O)N2CCN(c3cccc(C)c3C)CC2)c1,–,"inconclusive: 2.06 µM [inhibitor, partial curve]"
COCCNC(=O)C1CCCN(C(=O)c2cc(C)n(C(C)(C)C)n2)CC1 (stereo unspecified),inactive: 2.29%,–
COc1ccc(-c2nc(S(=O)(=O)c3ccccc3)c(N3CCC(C)CC3)o2)cc1,–,active: 11.6 µM
CCc1n(CC(O)COCc2ccccc2)c2ccccc2[n+]1C (stereo unspecified),–,"inconclusive: 25.9 µM [inhibitor, partial curve, poor fit]"
CCCn1cnc2scc(-c3ccc(C)c(C)c3)c2c1=O,–,active: 20.6 µM
COc1ccc(/C=N/Nc2nncc3ccccc23)c(OC)c1,–,"inconclusive: 23.1 µM [inhibitor, single point]"
Cc1cc(C(=O)NNC(=S)NCC(C)C)cs1,–,"inconclusive: 29.1 µM [inhibitor, single point]"
COc1ccc(-c2n[nH]c(=S)n2-c2ccccc2C)cc1OC,inactive: 0.866%,–
COc1ccc(S(=O)(=O)Nc2cccc(-c3ccc(N4CCCCC4)nn3)c2)cc1F,–,"inconclusive: 29.1 µM [inhibitor, single point]"
CCOC(=O)COc1ccc2c3c(c(=O)oc2c1C)CCC3,–,"inconclusive: 20 µM [inhibitor, partial curve]"
CCOC(=O)c1c(CSc2ccccc2)n(C)c2cc(Br)c(O)c(CN(C)C)c12,–,active: 14.6 µM
Clc1cccc(CNc2ccn3nc(-c4cccc(Cl)c4)cc3n2)c1,–,"inconclusive: 25.9 µM [inhibitor, single point]"
COCCNC(=O)C1(C)CCCN(Cc2ccc(C)c3ccccc23)C1 (stereo unspecified),–,active: 16.4 µM
O=C(/C=C/Nc1ccccc1)c1ccccc1,inactive: -6.41%,–
O=C(Nc1cccc(Cl)c1)c1nc[nH]c1C(=O)NCCN(CCNC(=O)c1[nH]cnc1C(=O)Nc1cccc(Cl)c1)CCNC(=O)c1[nH]cnc1C(=O)Nc1cccc(Cl)c1,–,"inconclusive: 29.1 µM [inhibitor, single point]"
CCCCn1c(SCC(N)=O)nc2c(sc3ccccc32)c1=O,–,"inconclusive: 20.6 µM [inhibitor, single point]"
O=C(COC(=O)CNC(=O)C1CCCCC1)Nc1ccc(F)c([N+](=O)[O-])c1,–,"inconclusive: 1.03 µM [inhibitor, full curve, poor fit]"

Structure (SMILES),"activity change, negative = growth inhibition",Potency
CC(C)(C)C(=O)NC(=S)NNC(=O)c1ccc(Cl)cc1Cl,–,active: 5.8 µM
NC(=O)c1ccsc1NC(=O)CS(=O)(=O)c1ccc(Cl)cc1,–,"inconclusive: 18.4 µM [inhibitor, partial curve]"
COc1ccc(-c2n[nH]c(C)c2-c2cnn(-c3ccccc3)c2)c(O)c1C,–,"inconclusive: 29.1 µM [inhibitor, single point]"
O=C(CSCc1ccc([N+](=O)[O-])cc1)NC1CCCCCC1,–,"inconclusive: 14.6 µM [inhibitor, single point]"
COc1ccccc1C(C)Nc1nc(-c2cccnc2)nc2ccccc12 (stereo unspecified),–,active: 23.1 µM
O=C(CN1CCN(c2ccccn2)CC1)N(c1ccccc1)c1ccc2ccccc2c1,–,active: 18.4 µM
CSc1ccc(/C=N/Nc2nc(C)cc(=O)[nH]2)cc1,inactive: -2%,–
O=C(CC(c1ccccc1)c1ccco1)Nc1nccs1 (stereo unspecified),–,active: 14.6 µM
Cn1cccc1/C=N/n1c(-c2ccc(Cl)cc2)n[nH]c1=S,–,"inconclusive: 29.1 µM [inhibitor, single point]"
CCCOc1ccc(/C=C2/C(=O)ON=C2C)cc1Cl,inconclusive: -34.4% [inhibitor],–
Nn1c(SCc2cccc(F)c2)nnc1-c1ccncc1,inactive: -15.1%,–
Oc1ccc(NCc2ccccc2OCc2ccccc2)cc1,–,active: 18.4 µM and active: 23.1 µM
Cc1ccc(Nc2cc(C)nc(NCc3ccccc3)n2)cc1,–,active: 2.59 µM
COc1ccc2c(c1)nc(NCCCO)n2Cc1ccccc1,–,"inconclusive: 32.6 µM [inhibitor, partial curve]"
CCOc1ccc(CNC(=O)c2cc3cc(S(=O)(=O)N4CCCCC4)ccc3n2C)cc1,–,active: 16.4 µM
O=C(COC(=O)/C=C/c1ccccc1)NCc1ccccc1Cl,inactive: 4.39%,–
CCCNc1nc(C)cc(-c2cc(C(=O)NC3CCCC3)on2)n1,–,"inconclusive: 25.9 µM [inhibitor, single point]"
CCOc1cc(N2CCOCC2)c(OCC)cc1NC(=O)c1ccc(S(=O)(=O)N2CC(C)OC(C)C2)cc1 (stereo unspecified),–,"inconclusive: 25.9 µM [inhibitor, single point]"
CCn1cc(C(=O)OCC(=O)Nc2cccc(S(=O)(=O)N3CCOCC3)c2)c(=O)c2ccc(C)nc21,inconclusive: -32.4% [inhibitor],–
O=C1CCCc2oc3c(c21)CCCC3,inactive: -8.63%,–
Cc1ccc(Cl)cc1-n1c(SCC(=O)NCc2ccccc2)nc2n[nH]c(C)c2c1=N,–,"inconclusive: 5.8 µM [inhibitor, partial curve]"
CSCCC(NC(=O)COc1ccccc1)C(=O)N1CCCCCC1 (stereo unspecified),inconclusive: -31.7% [inhibitor],–
COC(=O)C1=CN(CCCN2CCCC2=O)C=C(C(=O)OC)C1c1cccs1,inactive: 6.6%,–
